According to PubChem BioAssay AID1347434 (National Center for Advancing Translational Sciences (NCATS), 2020):
About 30 (2%) of roughly 1,200 compounds were called active. About 23% were inconclusive and are not listed. Calls come from the whole dose curve; as a rule, active = well fitted inhibition curve with a large enough effect; inconclusive = small, poorly fitted or top-dose-only effect; inactive = flat fitted curve, though single readings scatter. This is one part of the list.

Target: Single-stranded DNA cytosine deaminase (Homo sapiens) (UniProt Q9GZX7)
UniProt Q9GZX7, sequence (Q9GZX7 whole entry, looked up): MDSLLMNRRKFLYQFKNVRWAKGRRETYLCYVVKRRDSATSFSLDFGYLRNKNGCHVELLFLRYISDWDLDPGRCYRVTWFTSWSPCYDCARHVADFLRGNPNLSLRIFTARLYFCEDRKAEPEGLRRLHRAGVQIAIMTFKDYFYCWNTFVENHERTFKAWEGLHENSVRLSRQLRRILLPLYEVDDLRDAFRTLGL
Experiment: Confirmatory qHTS assay for inhibitors of Activation Induced Cytidine Deaminase (AID): AID signals
Details: recombinant AID, FRET deamination/UDG coupled fluorescence, 4 h; series mostly up to 115 µM; activity, negative = inhibition: at the top concentration
Outline: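 Read 1 (AID) was measured at 540 ex/590 em after a 30 min NaOH step. The reaction was AID (1 uM, 4/3x stock) with UDG, compound at final 7.32 nM - 114 uM for 10 min, then DJC20/DJC23 substrate for 4 hr at room temperature. A UDG read at 560/665 serves as counterscreen.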
% is set by controls: 0 for no effect and ±100 for the full control effect.

activity, negative = inhibition, inactive:
COc1ccc(C(=O)c2cn(Cc3ccccc3F)c3ccc(F)cc3c2=O)cc1 -13.1%
CCCCOc1ccc(Cn2c(=O)sc3ccccc32)cc1 -2.57%
CCCCCn1c(=N)n(CC(O)COc2cccc(C)c2)c2ccccc21 (stereo not given) -25.8%
CCCN(CCC)CC(O)Cn1cc(/C=C/C(=O)c2ccc(OCC)cc2)c2ccccc21 (stereo not given) -22.5%
CCN(CC)CCOC(=O)c1ccc(NC(=O)CSc2cc(=O)n(CC)c3ccccc23)cc1 -2.43%
Cc1ccccc1Cn1c(SCc2ccc(C(=O)NC3CCCC3)cc2)nc2ccncc21 2.54%
Cc1ccc(-n2cnc3cc(C(=O)NCc4ccccc4Cl)ccc32)c(C)c1 -15.4%
CCOC(=O)C1CCCN(C(=O)c2cc3c(Cl)nc4ccccc4c3s2)C1 (stereo not given) -0.274%
Fc1ccc(F)c(Nc2c3c(nc4ccc(Cl)cc24)CCC3)c1 -6.59%
O=C(c1ccccc1Cl)N1CCCC(c2nc3c(nnn3Cc3ccc(F)cc3F)c(=O)[nH]2)C1 (stereo not given) -4.39%
COc1ccc(-n2c(Cc3ccccc3)nnc2SCc2nc(-c3ccccc3C)no2)cc1 -18.2%
Cc1c(C(=O)N(C)c2ccccc2)sc2nc(-c3ccc(F)cc3)cn12 -19.3%
CCn1c(CN2CCCCC2)nc2cc(NC(=O)COc3cc(C)ccc3C(C)C)ccc21 -14.4%
COc1ccc(N2CCN(C(=O)c3cn(C4CCCCC4)c(=O)c4c3c3ccccc3n4C)CC2)cc1 -0.756%
COC(=O)c1ccc(Cl)cc1NC(=O)Nc1nnc(N(C)Cc2ccccc2)s1 -11.9%
COc1ccc(OC)c(-c2noc(N3CCN(c4cc(Cl)ccc4C)CC3)n2)c1 -4.51%
CCc1ccc(CNC(=O)C(CC)n2nc(C)c3c(C)n(-c4ccccc4)nc3c2=O)cc1 (stereo not given) -18.2%
O=C(CSc1nc2c([nH]c3ccccc32)c(=O)n1-c1ccccc1F)Nc1cccc(C(F)(F)F)c1 1.59%
CCc1ccccc1-n1cnc2cc(C(=O)NC3CCCCCC3)ccc21 -15.9%
CCCn1c2ccccc2c2cnn(CC(=O)N(CC)c3cc(C)ccc3C)c(=O)c21 -19.6%
CCCCCOc1ccccc1CN1C(=O)C(=O)c2cc(C)ccc21 -12.2%
CCn1cc(C(=O)NCCc2ccc(OC)c(OC)c2)c(=O)c2cc(S(=O)(=O)N(C)C3CCCCC3)ccc21 -25.1%
CCn1nc(C)c2c(-c3ccccc3)cc(=O)n(C(C)C(=O)NCc3ccccc3OC)c21 (stereo not given) -20.2%
Cc1cc(-c2ccccc2)n2nc(-c3ccccc3)cc2n1 2.46%
Cc1ccc(NC(=O)N2CCN(c3cc(-c4noc(C)n4)ccc3C)CC2)c(F)c1 0.707%
COc1ccc(OCCCn2c(=O)oc3ccc(C)cc32)cc1 -11.5%
Cc1ccc(C)c(N(C)C(=O)C2CCN(c3ncnc4c3nc3n4CCCCC3)CC2)c1 -0.379%
Cc1cc(C)n2c(Nc3ccc4c(c3)OCCO4)c(-c3ccccc3)nc2n1 -13.8%
Cc1cc(Cl)ccc1OCC(=O)N1CCC(c2nc3ccccc3o2)CC1 -13.5%
Cc1nc(-c2ccc(S(=O)(=O)N(Cc3ccccc3)C(C)C)cc2)co1 0.0412%
Cc1ccccc1OCc1nnc(SCc2cc(=O)c3ccc(C)c(C)c3[nH]2)n1C -24.7%
COc1ccc(Nc2nc3ccccc3nc2NS(=O)(=O)c2ccc(Cl)cc2)cc1OC -2.97%
Cc1cc(C)c(NC(=O)CCCn2c(C)c3cnn(-c4ccccc4)c(=O)c3c2C)c(C)c1 -10.2%
Cc1ccc(C(=O)Nc2ccccc2C(=O)O)cc1S(=O)(=O)N1CCCCCC1 -18.5%
CCN(CCCNC(=O)c1cc2c(=O)[nH]c3ccc(C)cc3c2s1)Cc1ccccc1 -25.1%
COc1ccc(-c2cc(C(F)(F)F)nc(NCCc3ccccc3)n2)cc1 1.2%
O=C(/C=C/c1cn(CC(O)CN2CCCCCC2)c2ccccc12)c1ccc(Br)cc1 (stereo not given) -13.7%
COc1cc2cc(CNc3ccccc3)c(=O)n(CC(=O)Nc3cc(C)cc(C)c3)c2cc1OC 5.1%
CCCCN(CC)CCNC(=O)C1CCN(c2nnc(C)c3c(C)n(-c4ccc(C)cc4)nc23)CC1 -16.8%
Cc1ccc(CCNC(=O)c2ccc(CSc3nc4ccncc4n3Cc3ccc(F)cc3)cc2)cc1 -8.3%
Cc1ccc(Cl)cc1N1CCN(C(=O)c2cc(S(=O)(=O)N3CCCCC3)cn2C)CC1 -1.52%
Cc1ccc2ccc3cc(C(=O)Nc4ccc(C)c(F)c4)nc3c2[nH]1 0.654%
Cn1c(=O)c2c(-c3ccccc3Br)n(Cc3ccccc3)cc2n(C)c1=O -15.5%
CCOC(=O)C1=C(CN(C)Cc2ccccc2)NC(=O)NC1c1ccc(OC(C)C)cc1 (stereo not given) -14.6%
Cc1c(NC(=O)c2ccc(-c3ccc(F)cc3)o2)cccc1-c1nc2ncccc2o1 -17.3%
